Results on 167 variants are retold here after the RNAGym collection of RNA variant scans (doi:10.7554/elife.90254).

The source gives no read counts; variants with many changes may rest on few reads.

The chains are these.
B1: OR4K15 (parent)
chain: GUUAACGGUCAUAGGCCAUGGAAACUAGGAGCACCAUUUCGCUGCCAGUGAAGAAAUGAACAAAGAAAAUCUGGGCCAGGCAGGCAUCAAAAGAAAUAGUCUUGCGCUCAACCAGAAAGUCUGUAAUCAUUUUAAGGGUA

In this data set the parent is B1. In words: self-cleavage, relative activity (ratio to wild type); higher = more cleavage; in vitro, sequencing; the parent is a self-cleaving ribozyme.
As for U39C U43G U72C, the self-cleavage was determined as 0.33.

For C40U A60G U131G U132G G137A, the self-cleavage was 1.92.

With U43A A47G U49C U72G A96G U127C, the self-cleavage turned out to be 0.15. The same measure for C42U A60U U124C: 1.32; for U43A A54G U120C: 0.76. The same measure for C40U U57C A67G A94G: 1.68; for U39C U87C A92G A95G A96G: 2.35; for U39C A67G A78U: 0.46.

In the case of U39C U43C A63G A69U A129G, the self-cleavage worked out at 1.96.

On to C40A A56G A62C G83A A86U, for which the self-cleavage was 1.43. G41A U87A A94G U103C U139C: the self-cleavage stood at 1.09. The same measure for U43A A78U A90G: 0.3.

Consider U39C A56G A86G A96G, for which the self-cleavage stood at 0.97. The value for C40U U120C C121U was 2.73; that for U39C A68G A95G was 2.04.

With C42A A59G A64G U102C A118G U122C, the self-cleavage turned out to be 1.42.

Take U39C U70G A91G U127A: the self-cleavage was 1.76.

In the case of C40U A64G A92G A135G, the self-cleavage was found to be 1.66.

Take U43A A68G G79A A114U: the self-cleavage was 0.05. Regarding U43A A64C A110G, the self-cleavage turned out to be 0.16. The same measure for U43A A54G A117U: 1.13; for G41A U43C A68G: 0.94; for U39C C40U A63G U122C U132A: 1.03.

As for U39C A54U U108C A111G, the self-cleavage amounted to 0.01.

As to C40U A52G U122C U133C, the self-cleavage was 2.48. On to U39C A66U U103C A116G, for which the self-cleavage came to 0.45. The value for U43A A63G A126G was 0.77. The value for U39C U108C A118C was 0.01; that for U39C G41U G83A A90G was 1.52. The same measure for G41A U124G U131C: 1.3. In the case of U39C U103C A110G, the self-cleavage was found to be 0.2. The same measure for G41A A86G U122G A134C G136A: 2.62; for U43A A55G A59U A111G: 0.02. The same measure for U39C A95G A114G: 1.35. As for C40U A47G U70C U108C U124A U132G, the self-cleavage was 0. The value for U43A A66U A111U was 0.21; that for U39C A68G A94G U130C was 1.61; that for U39C A56G A69G was 1.15.

On to U39C U43C G75A A94G A96G, for which the self-cleavage is 0.06.

In the case of C40G A52U A82G U87C A129U, the self-cleavage worked out at 0.19. The value for C42U U43A U100C A135U was 2.29; that for U39C A63C A92G U127A U139C was 1.78. Regarding U39C A69G A92G, the self-cleavage turned out to be 0.89.

Take G41A A52G A110U: the self-cleavage amounted to 0.92.

On to U39C C88U U132A, for which the self-cleavage is 1.59. The same measure for U39C A78G U103C: 0.17; for U39C C42U A111U: 0.13. The same measure for G41A A114C U133A: 0.01; for C42U A55U U100A A118G: 0.66. The same measure for G41A A52G A117U: 1.22; for U39C A96G U120C: 0.48. For the variant C40A A91G U97C U103C A125G, the self-cleavage worked out at 0.09.

As for U39C A68U U87C, the self-cleavage is 1.53. In the case of U39C A78G A82G, the self-cleavage worked out at 0.37. The same measure for G41A A60G A91U U127A: 1.99. With U39C A67G A82G, the self-cleavage is 0.45. The same measure for C42A U57A A90G U133C: 1.05; for U39C A69G U120C A129G: 0.87. The same measure for U43A A55G A78U U87A A111G: 0.01; for U43A A52G A67G: 0.94; for C40U A117U A129G: 0.68. The same measure for U39C U57C A86G A92G U108A A117G A118G: 0.01; for U43A A56G U57G A82G: 0.44; for C40U A60G A78G A91G A92G: 0.19.

With U39C A59G G106A, the self-cleavage worked out at 0. The value for G41A A59G U70C was 0.61; that for U39C A60G U122C was 0.31.

Turning to G41A A60G A62G, the self-cleavage came out at 0.63. Regarding U39C A59G A92G A111G, the self-cleavage stood at 0.01. For the variant U39C A56G A62G A63G, the self-cleavage stood at 1.49. The value for U39C A90C A92G was 0.66; that for C40U A47U A60U was 1.49. The same measure for U43A A47U U130C: 0.95. With U39C U43A A54C U100C G123A U130C, the self-cleavage came out at 1.94.

For the variant U39C A91G A92G, the self-cleavage was 0.54.

For U39C A92G U131C, the self-cleavage is 1.27. The same measure for U39C A60G A94G A126G: 1.35; for U39C A56G A117U U131A U132C: 1.31; for U39C C42A A68G U72A: 0.5.

For the variant U39C A64G A98G, the self-cleavage is 1.2. The same measure for C40A A52G U72C U87C: 0.38; for U39C G50A A78G U132C: 0.23; for C42U A55G A92G U120C U122C: 0.53. The same measure for G41U U87C A94G U102A U130C: 0.03; for U43A A54G A56G U70C: 1.07; for U39G A63C A78G U100C: 0.26. C40U A66G U108C U122C: the self-cleavage worked out at 0.01. The value for U39C G79U A95G A129G was 0.06; that for U43A A47G U100A U120A was 0.93; that for U39C A95G A129G was 1.85. The value for C40G G74A U87C U102C U120C was 0.1; that for C40U A66G U87C U133A was 1.7; that for U39C U43A A60G U87A A117U A140G was 1.46.

For the variant G41A A63G U87C, the self-cleavage was determined as 1.51.

In the case of U43A A51U A52U A82G A92G, the self-cleavage was 0.17. In the case of G41A A82G C109U A110G U139A, the self-cleavage worked out at 0.02. The same measure for U43A A60G A118G A126G: 0.54; for U43A A55G U120A U132A: 0.71. With U39C U102C U131A, the self-cleavage was found to be 2.84.

As to C42U A51G A60G A114U A135U, the self-cleavage came out at 0.02. Take C42U A64G G99U U108C U120C U132C: the self-cleavage worked out at 0.03. As to C40A G44A U49C A67U, the self-cleavage came to 1.69. The value for U39C U43C A135G was 0. With U43A A52G A55U U97G U131C, the self-cleavage was 1.84. The same measure for U39C A78U U120C: 0.19; for C40A U43G A55G A59U A90G A98G U127C: 0.68; for U39C U43C A52U A55U A69G A110G: 0.21.

C40U A64G A68G A116G: the self-cleavage was 0.9. The same measure for U39C A60G A118G: 0.9; for U43A A63G A78G: 0.35.

Take U39C A56G A60G A68G A111G A116G: the self-cleavage stood at 0.

Regarding U39C A68G A92G A96G U124C, the self-cleavage was 0.73. As to U39C U43C A52U A96G, the self-cleavage was found to be 1.35. On to U39C A62G A67G, for which the self-cleavage was 1.21.

Consider C42A U57C A59G U100A U139A, for which the self-cleavage was determined as 0.36. The value for G41A A51G A78U was 0.17. Take U39C C76U U139C: the self-cleavage stood at 0.09. The same measure for U39C A66G A69G: 1.33; for U39C A91G U97C C109U A125U U132C: 0.05. The same measure for G41A A55G U57A A89G: 1.16. With U39G U72G A82G C112U, the self-cleavage amounted to 0.02. The same measure for G41A A95G U102C: 1.96; for U39C A67U U72A A82G A117G: 0.19. Take U39C U102A A140G: the self-cleavage is 0.7. The same measure for C42A A67G U139A: 1.72; for U39C U57G U103C: 0.2; for U39C U108A A134G A135G G138U: 0. For the variant U39C A63G A94G, the self-cleavage was 0.89. In the case of U43A A64U U122C, the self-cleavage was 1.71. The same measure for U39C A63U U108C U124A: 0.03; for G41A A66C A90G U103C: 0.46; for G41A U43C G74A: 0.17. For G41A A62G A98G, the self-cleavage was found to be 0.54.

Take C40A A59U A118G: the self-cleavage came out at 0.4. The value for U43A A52G A62G was 2.1; that for G41A A51G A69G A110G A114G A116U was 0.03; that for C42U A51G U87A A118U U122C was 0.74. Regarding U43A A51U A94G A118G A129G, the self-cleavage came to 0.38.

For the variant U39C G83A A86U A98G, the self-cleavage is 1.33. For the variant G41U G44A U102C, the self-cleavage turned out to be 2.14. For the variant C40U A67G A92U U127C, the self-cleavage was determined as 1.24.

In the case of U43A A66G A95G, the self-cleavage worked out at 2.57. On to C40U G115U G119A, for which the self-cleavage was 0.63.

For the variant G41A A56G A78G A91U, the self-cleavage was 0.3.

Take U39C A64U U97C U100C U131C: the self-cleavage was 1.4. The same measure for U43A A67U A89G U103A U124A: 0.22. Consider U39C G41A U87C A94U, for which the self-cleavage amounted to 1.62. The value for U39C A91G U102C U124A was 1.21; that for U39C A89G A92G was 1.83; that for U43A A66G A67G A116G U120C U127C U133C was 0.82. The value for U39C A60G A67G was 1.67. The value for U43A A64G A111U was 0.37; that for U39G A67G A118G was 0.52; that for C40A A126G A129G was 0.95. For C40U A69G A98U, the self-cleavage came out at 2.31.

For U39C U70C A114U, the self-cleavage came out at 0.01. U43A A67G U132C: the self-cleavage was 1.

As for U39C A82G A116G, the self-cleavage came out at 0.16. The value for U39C A59G U108C U120G was 0.01; that for U43A A56G A94U U120A U130C was 1.38. The value for U39C G50A A66G U102C G106A U108A C109A A117G was 0.01; that for U43A A51G A62C A78G was 0.6.

On to U43A A66G A111G, for which the self-cleavage is 0.03.

On to U39C U70C A78U A91G A129C, for which the self-cleavage stood at 0.06. Take U39C A67U G79C: the self-cleavage was 0.08.

As for U39C A56G A68G, the self-cleavage worked out at 0.95. Regarding G41C U127C U130C, the self-cleavage was 0.17.
